Test results reported in PubChem BioAssay AID652104 (National Center for Advancing Translational Sciences (NCATS), 2013).
Out of some 410,000 compounds screened, about 7,200 (1.8%) were called active. The inconclusive results got no clear call from the source; some entries with a clear call stand among them for comparison. Calls follow the shape of the dose curve; as a rule, active = well fitted activation curve with a large enough effect; inconclusive = small, poorly fitted or top-dose-only effect, or another doubt; inactive = no such curve, though single readings can be large or run the other way. Potencies beside an inconclusive call are fits to weak or partial responses and may not hold up.

Assay: qHTS of TDP-43 Inhibitors; also: nearly all actives have a fitted effect of over 50% in size; as to growth rescue (activation): % of control where 0% means no effect
Details: TDP-43 expressing yeast growth rescue, BacTiter-Glo, 24 h; growth rescue (activation): at 46.1 µM (top of the series) unless noted
In short: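 In this qHTS, compounds that restore growth of yeast expressing TDP-43 appear as activators. Cells (OD600=0.02, galactose medium, raffinose-pregrown) are incubated with compound 24 hr at 30 deg C and growth is quantified by BacTiter-Glo.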
Potency is read from the fitted curve at half-maximal effect; tags tell the direction and shape of the fitted curve.

Potency, active:
Cc1ccc(C(=O)CCNc2ccc(F)c(Cl)c2)o1 10 µM
Cc1ccc(Cc2c(-c3ccco3)nc3ccc(Cl)cn23)cc1 6.31 µM
CCCN(CC(=O)Nc1cc(Cl)cc(Cl)c1)CC(=O)Nc1ccc(F)c(F)c1F 28.2 µM
COc1ccc2c(=O)c(-c3ccccc3)c(C)oc2c1 11.2 µM

Potency, inconclusive:
COc1ccc(CN2CC(=O)N3[C@H]4c5ccccc5OC[C@@H]4[C@H](c4ccccc4)[C@]3(C)C2=O)cc1 35.5 µM [activator, single point]
CC(=O)c1nc(N2C(=O)CC(Cc3cc(C)cc(C)c3)C2=O)sc1C (stereo not drawn) 12.6 µM [activator, single point]
Cc1cc(C)nc(Nc2ccccc2Cl)n1 3.55 µM [activator, partial curve]
COc1ccc(OCC(=O)N2CCN(c3nnc(-c4ccccc4)c4ccccc34)CC2)cc1 22.4 µM [activator, single point]
CCc1ccc(C(N)=S)cc1 31.6 µM [activator, single point]
CCc1nc2c(OCc3ccc(F)c(F)c3)cccn2c1N(C)C(=O)c1ccncc1 5.62 µM [activator, single point]
Cc1ccccc1/C=N\NC(=O)c1ccccc1-n1cccc1 0.316 µM [activator, full curve, poor fit]
CCOc1ccccc1C1CC(=O)NC(SCC(=O)Nc2nccs2)=C1C#N (stereo not drawn) 5.62 µM [activator, single point]
COc1ccc(N2CCN(C(=O)CN3CCN(c4nc(-c5ccc(F)cc5)cs4)CC3)CC2)cc1 17.8 µM [activator, single point]
CC(=O)C1=C(c2ccc(Cl)c(Cl)c2)N(C(C)=O)n2c(nnc2C2CCCCC2)S1 7.08 µM [activator, partial curve]
O=C(NN1C(=O)c2ccccc2NC1c1cccnc1)c1ccccc1 (stereo not drawn) 12.6 µM [activator, partial curve]
COc1ccccc1NC(=O)COC(=O)C12CC3CC(CC(Br)(C3)C1)C2 17.8 µM [activator, partial curve]
Cc1nn(C)c(Oc2cccc(Cl)c2)c1C#N 11.2 µM [activator, partial curve]
O=C(Nc1ccccc1)C1=C[C@@H](c2ccc3c(c2)OCO3)C[C@@H](OCCCCO)O1 20 µM [activator, partial curve]
COc1ccc(OC)c(C(=O)c2oc3ccccc3c2NC(C)=O)c1 14.1 µM [activator, single point]
CCOC(=O)C1CCN(c2ncnc3c2cnn3-c2ccccc2)CC1 15.8 µM [activator, single point]
COCc1cccc(-c2csc(C(O)c3ccc(OC)cc3)n2)c1 (stereo not drawn) 31.6 µM [activator, single point]
COc1ccccc1NC1SC(=O)N(c2ccccc2)C1=O (stereo not drawn) 3.98 µM [activator, full curve]
CCCCN1C(=O)/C(=C2/Sc3ccc(OC)cc3N2CC)SC1=S 15.8 µM [activator, partial curve, poor fit]
O=C1C=C(c2cc(Cl)cc(Cl)c2)C[C@@H](c2ccc(F)cc2)C1 15.8 µM [activator, partial curve]
CCCCN1Cc2ccccc2Oc2cc(Br)ccc2S1(=O)=O 3.55 µM [activator, partial curve]
O=C(NCCS(=O)(=O)N1CCN(c2ccccc2F)CC1)C(c1ccccc1)c1ccccc1 3.55 µM [activator, partial curve]
CCOC(=O)C1CCCN(C(=O)c2cccc(NC(=O)c3nsc4ccccc34)c2)C1 (stereo not drawn) 35.5 µM [activator, single point]
COc1ccccc1C(=O)N(Cc1ccc(C)o1)C1CCS(=O)(=O)C1 (stereo not drawn) 35.5 µM [activator, single point]
CCO[C@@H]1OC(C(=O)N2CCOCC2)=C[C@H](c2cn(C(C)=O)c3ccccc23)[C@H]1CCCO 5.62 µM [activator, full curve, poor fit]
CCc1ccc(NC(=O)C2CCN(C(=O)N3CCOc4ccccc43)CC2)cc1 17.8 µM [activator, single point]
O=C(CSc1nc2ccccc2[nH]1)Nc1ccc(N2CCOCC2)cc1 1.12 µM [activator, partial curve]
COc1ccc(F)cc1-c1cc(C(=O)NCc2ccccc2)[nH]n1 35.5 µM [activator, single point]
O=C(c1cccs1)N1CCN(c2nc3c(F)cc(F)cc3s2)CC1 10 µM [activator, partial curve]
CCC(Sc1nnnn1-c1ccccc1)C(=O)Nc1nc2ccccc2s1 (stereo not drawn) 35.5 µM [activator, single point]

Growth rescue (activation), inactive:
Cc1cccc(CNC(=O)c2cccc(NC(=O)N3CCSc4ncccc43)c2)c1 2.47%
O=C(CN(c1ccc(Cl)c(C(F)(F)F)c1)S(=O)(=O)c1ccccc1)N/N=C/c1cccc2c1OCCO2 16.6%
O=C(CSc1nnc(CNC(=O)c2ccccc2F)n1-c1ccccc1)Nc1ccccc1F 0.738%
CCCCN(Cc1ccccc1)S(=O)(=O)c1cc(Br)cc2c1N(C(=O)C1CC1)CC2 9.24%
Cc1cccn2c(=O)c(C=NCc3ccccc3)c(NCCO)nc12 -19%
COc1cc(NC(=O)c2ccc(-c3nc(COc4ccccc4)c(C)o3)cc2)cc(OC)c1 7.47%
COc1ccc2c(c1)c1c(c(=O)n(-c3ccc(C)cc3)c(=O)n1CC(=O)N1CCCC1)n2C 4.94%
CC1CCN(C2=C(NS(=O)(=O)c3ccc(Cl)cc3)C(=O)c3ccccc3C2=O)CC1 -6.63% [at 0.397 µM]
Cn1cccc1/C=C(/C#N)C(N)=S 0%
